From paper PMC6919601, “Identification of Plasmodium dipeptidyl aminopeptidase allosteric inhibitors by high throughput screening” (PLoS ONE, 2019) come the findings set out here.

The campaign covered roughly 110,000 compounds. About 230 (0.21%) showed an effect of 50% or more. This is one part of the list.
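Note: 30 min substrate incubation versus DMSO and 10 µM JCP410 controls.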

For the assay, the target named is DPAP1 (Plasmodium falciparum, UniProt Q8IIJ9). Put plainly: primary screen, percent inhibition; read by cleavage of a fluorogenic dipeptide substrate; higher = more effect of the substance. Also on record: species or system P. falciparum D10 trophozoite lysates; single well.
Chain of DPAP1 (Q8IIJ9 whole entry, looked up): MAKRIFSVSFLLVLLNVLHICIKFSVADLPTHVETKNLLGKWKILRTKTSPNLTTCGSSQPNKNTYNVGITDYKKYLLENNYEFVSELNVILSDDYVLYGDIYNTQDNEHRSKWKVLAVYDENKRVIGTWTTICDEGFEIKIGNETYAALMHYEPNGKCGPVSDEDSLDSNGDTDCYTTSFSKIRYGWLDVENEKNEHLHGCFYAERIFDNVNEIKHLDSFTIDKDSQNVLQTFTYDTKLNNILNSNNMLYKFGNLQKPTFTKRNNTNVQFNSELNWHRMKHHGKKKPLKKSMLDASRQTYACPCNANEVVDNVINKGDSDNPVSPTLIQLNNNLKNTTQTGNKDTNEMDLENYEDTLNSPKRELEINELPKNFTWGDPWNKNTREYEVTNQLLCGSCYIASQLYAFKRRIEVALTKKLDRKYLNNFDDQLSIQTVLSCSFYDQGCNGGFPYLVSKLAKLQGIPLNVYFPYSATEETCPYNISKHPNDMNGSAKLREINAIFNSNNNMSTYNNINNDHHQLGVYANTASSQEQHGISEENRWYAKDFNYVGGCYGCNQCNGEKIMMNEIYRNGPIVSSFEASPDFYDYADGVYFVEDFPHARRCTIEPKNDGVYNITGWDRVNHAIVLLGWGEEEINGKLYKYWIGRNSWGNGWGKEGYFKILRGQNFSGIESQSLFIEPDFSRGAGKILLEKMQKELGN
With `COc1ccccc1NC(=O)C1CC(=O)N(C)/C(=N/c2ccc(C)c(C)c2)S1` (stereo not drawn), the “% Inhibition @ 10 uM” value is given as -1.95%. For the compound `COc1ccc(C)cc1NC(=O)c1ccccc1Br`, the “% Inhibition @ 10 uM” value is reported as 4.22%.

As to `O=C(NCc1ccco1)c1ccc(Br)o1`, the “% Inhibition @ 10 uM” value is 0.986%. To `CC(=O)c1cccc(NC(=O)c2ccc3c(c2)C(=O)N(c2ccccn2)C3=O)c1` belongs 3.01%; to `COc1cc(SC)ccc1C(=O)NC1CCCCCCC1`, -3.9%; to `Cc1ccc(/C=c2\sc3nc(-c4ccccc4Br)nn3c2=O)o1`, 2.24%. Consider `O=C(O)C(c1ccccc1)C(O)c1ccccc1` (stereo not drawn), for which the “% Inhibition @ 10 uM” value is -1.61%. Turning to `CC1CCCC(C)N1C(=O)c1ccc([N+](=O)[O-])cc1` (stereo not drawn), the “% Inhibition @ 10 uM” value amounted to 4.66%. The same measure for `CCOc1ccccc1N1CCN(Cc2cc(C)ccc2C)CC1`: -0.0404%; for `CCN(CC)CCNc1nc2cc(OC)c(OC)cc2c2nc(-c3ccccc3)nn12`: 0.981%.

Take `O=C1CC(CNC(=O)N2CCN(C(c3ccccc3)c3ccccc3)CC2)CN1Cc1ccccc1` (stereo not drawn): the “% Inhibition @ 10 uM” value is recorded as 2.98%. For the compound `COC(=O)C1=CN(CC2CCCO2)C=C(C(=O)OC)C1c1ccccc1Cl` (stereo not drawn), the “% Inhibition @ 10 uM” value was -5.28%. Take `COc1cc(OC)cc(-n2nnc(-c3nc(-c4ccccc4)no3)c2N)c1`: the “% Inhibition @ 10 uM” value is -1.35%. On to `CC(C)(C)c1ccc(OCCCCn2ccnc2)cc1`, for which the “% Inhibition @ 10 uM” value is given as 1.83%. The same measure for `COc1cccc2sc(N(CCCN(C)C)C(=O)CN3C(=O)c4ccccc4C3=O)nc12`: 3.24%; for `COc1ccc2sc(C(=O)O)c(Br)c2c1`: 6.18%. To `Cc1ccc(CNCc2c(C(=O)O)n(Cc3ccccc3)c3ccccc23)cc1` belongs 1.93%; to `Cc1ccc(-n2c(C)cc(/C=C3/C(=N)N4C(=NC3=O)SN=C4S(C)(=O)=O)c2C)c(C)c1`, 3.48%; to `C=CCOc1ccc2c(C(F)(F)F)cc(=O)oc2c1`, -6.87%. Consider `O=C(Nc1cc(-c2cccc(Cl)c2)no1)C1CCCN(c2ncnc3c2nc2n3CCCCC2)C1` (stereo not drawn), for which the “% Inhibition @ 10 uM” value stood at 1.66%. The same measure for `Cc1nn(-c2ccccc2)c(-c2ccccc2)c1C(=O)O`: -2.77%; for `N#CC(C(=O)NC1CCCCC1)=C1CCCCCC1`: 0.983%. As for `Cc1cc(-c2ccccc2)n2ncc(C#N)c2n1`, the “% Inhibition @ 10 uM” value came to 3.16%. To `COc1cc(C2CC(=O)Nc3c2ccc2ccccc32)c(OC)cc1Br` (stereo not drawn) belongs -2.85%. For the compound `COc1cc(-c2noc(-c3cc4cc(Br)ccc4oc3=O)n2)cc(OC)c1OC`, the “% Inhibition @ 10 uM” value turned out to be 7.99%. Consider `Cc1nn(Cc2nc(-c3ccc(C(F)(F)F)cc3)no2)c(C)c1Br`, for which the “% Inhibition @ 10 uM” value was 4.57%. The same measure for `O=C(Nc1cccc(C(F)(F)F)c1)[C@@H]1C[C@@H]1c1ccccc1`: 3.54%; for `Cc1nc2c(c(C)c1CCC(=O)NCCCOC(C)C)c(=O)n(C)c(=O)n2C`: -11%. The same measure for `CCCCc1nn2cc(-c3ccc(C)c(C)c3)nc2s1`: -2.71%. `COc1cccc2c1OC1(C)CC2/C(=C(O)\C=C\c2ccc(OC)c(OC)c2OC)C(=O)N1` (stereo not drawn): the “% Inhibition @ 10 uM” value was -6.57%. To `COc1cccc(-c2nc(SCC(=O)Nc3cccc(C(F)(F)F)c3)nc(O)c2C#N)c1` belongs 4.09%. As to `O=C(c1ccccc1F)N1CCN(Cc2c[nH]c3ccccc23)CC1`, the “% Inhibition @ 10 uM” value was -9.24%. The same measure for `CC(C)C[C@H](NC(=O)c1ccc(NC(=O)c2ccncc2)cc1)C(=O)NCC#N`: 11.4%; for `Cc1ccc(-c2nnn3c2nc(N2CCCCC2)c2ccccc23)cc1`: 0.44%. As for `Clc1ccccc1OCCCN1CCCC1`, the “% Inhibition @ 10 uM” value is recorded as -2.34%. Turning to `CCOC(=O)c1c(-c2ccc(OC)cc2)csc1/N=C/C1C(=O)CC(C)(C)CC1=O`, the “% Inhibition @ 10 uM” value is recorded as -1.33%. To `Cc1c(CNC2CCCC2)c(C(=O)O)c(C)n1Cc1ccccc1` belongs 4.53%; to `COc1ccc(CCNC(=O)C2CCN(c3nn4c(=O)cc(C)nc4s3)CC2)cc1OC`, -5.63%. As for `C=CCn1c(NC(=O)c2ccc(C)cc2)c(C#N)sc1=N`, the “% Inhibition @ 10 uM” value turned out to be 2.25%. The same measure for `Cc1ccc(-c2nc(NC(=O)CCCC(=O)O)sc2C)c(C)c1`: -2.77%; for `Cc1ccc(N2C(=O)CC(N3CCOCC3)C2=O)cc1` (stereo not drawn): 2.36%; for `Cc1ccc2ncc3c(-c4ccccc4)[nH]nc3c2c1`: -13.5%. Regarding `O=C(N/C(=C/C=C/c1ccccc1)C(=O)N1CCOCC1)c1ccccc1`, the “% Inhibition @ 10 uM” value was -4.67%. As to `CC(=O)c1ccc(Oc2cc(-c3ccccc3)nc(-c3ccccc3)n2)cc1`, the “% Inhibition @ 10 uM” value was -3.27%. In the case of `COCCn1c(C)cc(/C=C2/NC(=O)N(c3ccc(Cl)cc3)C2=O)c1C`, the “% Inhibition @ 10 uM” value is listed as 3.32%. Take `COc1ccc(C2(N3CCC4(CC3)OCCO4)C(=O)c3ccccc3C2=O)cc1`: the “% Inhibition @ 10 uM” value amounted to 3.37%. As for `Cn1c2c(c(=O)n(C)c1=O)C(c1ccc(O)c(O)c1)C1C(=O)c3ccccc3C1=N2` (stereo not drawn), the “% Inhibition @ 10 uM” value was -1.37%. With `O=C(Nc1cccc2nonc12)C(F)(F)F`, the “% Inhibition @ 10 uM” value is recorded as 0.0345%. The same measure for `O=C(NCCCn1ccnc1)Nc1cccc(Cl)c1`: -5.14%; for `CCN1CCC(N2CCN(c3ccccc3)CC2)CC1`: 1.83%; for `Cc1cc(C(=O)N2CCCC2)c2c(C)nn(-c3ccccc3)c2n1`: 2.12%.
